Paper PMC9911399, “Two distinct binding modes provide the RNA-binding protein RbFox with extraordinary sequence specificity”
Numbering of substitutions follows the chain as printed; changes in the protein carry UniProt numbers. The list shows a part of the results.

T1: RBFOX1 RRM (Homo sapiens, UniProt Q9NWB1 109-208)
T1 sequence: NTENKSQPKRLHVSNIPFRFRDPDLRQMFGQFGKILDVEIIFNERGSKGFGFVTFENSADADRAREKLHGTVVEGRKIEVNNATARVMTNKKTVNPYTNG

B1: CAGGCCG (DNA:RNA)
RNA: GGGAGACCGGAAUUCAGAUUGUCCCAGGCCGUUAAAUCCCGUCGUAGCCACCA
DNA 1: CAATCTGAATTCCGGTCTCCC
DNA 2: TGGTGGCTACGACGGGATT
B2: GAGGUGA (DNA:RNA)
RNA: B1 RNA with C25G, C29U, C30G, G31A
DNA 1: CAATCTGAATTCCGGTCTCCC
DNA 2: TGGTGGCTACGACGGGATT
B3: AUAGAUC (DNA:RNA)
RNA: B1 RNA with C25A, A26U, G27A, C29A, C30U, G31C
DNA 1: CAATCTGAATTCCGGTCTCCC
DNA 2: TGGTGGCTACGACGGGATT
B4: GAUUGGC (DNA:RNA)
RNA: B1 RNA with C25G, G27U, G28U, C29G, C30G, G31C
DNA 1: CAATCTGAATTCCGGTCTCCC
DNA 2: TGGTGGCTACGACGGGATT
B5: GCGCUGG (DNA:RNA)
RNA: B1 RNA with C25G, A26C, G28C, C29U, C30G
DNA 1: CAATCTGAATTCCGGTCTCCC
DNA 2: TGGTGGCTACGACGGGATT
B6: UUCGUAA (DNA:RNA)
RNA: B1 RNA with C25U, A26U, G27C, C29U, C30A, G31A
DNA 1: CAATCTGAATTCCGGTCTCCC
DNA 2: TGGTGGCTACGACGGGATT
B7: AAUCGAG (DNA:RNA)
RNA: B1 RNA with C25A, G27U, G28C, C29G, C30A
DNA 1: CAATCTGAATTCCGGTCTCCC
DNA 2: TGGTGGCTACGACGGGATT
B8: CGCUUAA (DNA:RNA)
RNA: B1 RNA with A26G, G27C, G28U, C29U, C30A, G31A
DNA 1: CAATCTGAATTCCGGTCTCCC
DNA 2: TGGTGGCTACGACGGGATT
B9: CAAGCGG (DNA:RNA)
RNA: B1 RNA with G27A, C30G
DNA 1: CAATCTGAATTCCGGTCTCCC
DNA 2: TGGTGGCTACGACGGGATT
B10: AAAGCCC (DNA:RNA)
RNA: B1 RNA with C25A, G27A, G31C
DNA 1: CAATCTGAATTCCGGTCTCCC
DNA 2: TGGTGGCTACGACGGGATT
B11: CGAAAAU (DNA:RNA)
RNA: B1 RNA with A26G, G27A, G28A, C29A, C30A, G31U
DNA 1: CAATCTGAATTCCGGTCTCCC
DNA 2: TGGTGGCTACGACGGGATT
B12: GGUUAGU (DNA:RNA)
RNA: GGGAGACCGGAAUUCAGAUUGUCCGGUUAGUUUAAAUCCCGUCGUAGCCACCA
DNA 1: CAATCTGAATTCCGGTCTCCC
DNA 2: TGGTGGCTACGACGGGATT
B13: AUUUUGU (DNA:RNA)
RNA: B12 RNA with G25A, G26U, A29U
DNA 1: CAATCTGAATTCCGGTCTCCC
DNA 2: TGGTGGCTACGACGGGATT
B14: UACUUUU (DNA:RNA)
RNA: B12 RNA with G25U, G26A, U27C, A29U, G30U
DNA 1: CAATCTGAATTCCGGTCTCCC
DNA 2: TGGTGGCTACGACGGGATT
B15: UUAGCAG (DNA:RNA)
RNA: B1 RNA with C25U, A26U, G27A, C30A
DNA 1: CAATCTGAATTCCGGTCTCCC
DNA 2: TGGTGGCTACGACGGGATT
B16: GACUUCA (DNA:RNA)
RNA: B1 RNA with C25G, G27C, G28U, C29U, G31A
DNA 1: CAATCTGAATTCCGGTCTCCC
DNA 2: TGGTGGCTACGACGGGATT
B17: UUUAAGG (DNA:RNA)
RNA: B12 RNA with G25U, G26U, U28A, U31G
DNA 1: CAATCTGAATTCCGGTCTCCC
DNA 2: TGGTGGCTACGACGGGATT
B18: AGCUUAG (DNA:RNA)
RNA: B12 RNA with G25A, U27C, A29U, G30A, U31G
DNA 1: CAATCTGAATTCCGGTCTCCC
DNA 2: TGGTGGCTACGACGGGATT
B19: AAGGCUG (DNA:RNA)
RNA: B1 RNA with C25A, C30U
DNA 1: CAATCTGAATTCCGGTCTCCC
DNA 2: TGGTGGCTACGACGGGATT
B20: GCUGAUG (DNA:RNA)
RNA: B12 RNA with G26C, U28G, G30U, U31G
DNA 1: CAATCTGAATTCCGGTCTCCC
DNA 2: TGGTGGCTACGACGGGATT
B21: UCCUAUC (DNA:RNA)
RNA: B12 RNA with G25U, G26C, U27C, G30U, U31C
DNA 1: CAATCTGAATTCCGGTCTCCC
DNA 2: TGGTGGCTACGACGGGATT
B22: UGACCGA (DNA:RNA)
RNA: B12 RNA with G25U, U27A, U28C, A29C, U31A
DNA 1: CAATCTGAATTCCGGTCTCCC
DNA 2: TGGTGGCTACGACGGGATT
B23: CUUGCCU (DNA:RNA)
RNA: B1 RNA with A26U, G27U, G31U
DNA 1: CAATCTGAATTCCGGTCTCCC
DNA 2: TGGTGGCTACGACGGGATT
B24: CUCCGUA (DNA:RNA)
RNA: B1 RNA with A26U, G27C, G28C, C29G, C30U, G31A
DNA 1: CAATCTGAATTCCGGTCTCCC
DNA 2: TGGTGGCTACGACGGGATT
B25: UAUUGCA (DNA:RNA)
RNA: B1 RNA with C25U, G27U, G28U, C29G, G31A
DNA 1: CAATCTGAATTCCGGTCTCCC
DNA 2: TGGTGGCTACGACGGGATT
B26: UACUGGA (DNA:RNA)
RNA: B12 RNA with G25U, G26A, U27C, A29G, U31A
DNA 1: CAATCTGAATTCCGGTCTCCC
DNA 2: TGGTGGCTACGACGGGATT
B27: CAGAAUA (DNA:RNA)
RNA: B1 RNA with G28A, C29A, C30U, G31A
DNA 1: CAATCTGAATTCCGGTCTCCC
DNA 2: TGGTGGCTACGACGGGATT
B28: CUCAAGC (DNA:RNA)
RNA: B12 RNA with G25C, G26U, U27C, U28A, U31C
DNA 1: CAATCTGAATTCCGGTCTCCC
DNA 2: TGGTGGCTACGACGGGATT
B29: GUCGGAC (DNA:RNA)
RNA: B1 RNA with C25G, A26U, G27C, C29G, C30A, G31C
DNA 1: CAATCTGAATTCCGGTCTCCC
DNA 2: TGGTGGCTACGACGGGATT
B30: AGAACGA (DNA:RNA)
RNA: B12 RNA with G25A, U27A, U28A, A29C, U31A
DNA 1: CAATCTGAATTCCGGTCTCCC
DNA 2: TGGTGGCTACGACGGGATT
B31: AGCCCCU (DNA:RNA)
RNA: B1 RNA with C25A, A26G, G27C, G28C, G31U
DNA 1: CAATCTGAATTCCGGTCTCCC
DNA 2: TGGTGGCTACGACGGGATT

These binders were tested against T1, RBFOX1 RRM (assay: EMSA; HiTS-Eq, 1 nM pool, 10 min; buffer printed only for the single-RNA assays: 10 mM Tris pH 7.5, 150 mM NaCl, 3.4 mM EDTA, 0.001% NP-40, 30 C). Conditions: tags: His6 N-terminal (pET28a); label: 5' 32P.
Summary of the method: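 Purified RbFox RRM, wild type or mutant, was incubated for 10 min in 50 µL with 1 nM of a 5′-radiolabelled RNA pool carrying 7 randomized nucleotides, whose flanks were annealed to DNA oligonucleotides, over a series of increasing protein concentrations. Unbound RNA was resolved on 8% native PAGE, cut out, reverse-transcribed, barcoded by PCR and sequenced on an Illumina HiSeq 2500. Relative association constants were derived from changes in read counts for each RNA species versus the control reaction and normalised to the cognate motif.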

| Binder | binding signal |
| --- | --- |
| B1 | 0.00997 KA relative to UGCAUGU |
| B2 | 0.0193 KA relative to UGCAUGU |
| B3 | 0.00184 KA relative to UGCAUGU |
| B4 | 0.0202 KA relative to UGCAUGU |
| B5 | 0.0322 KA relative to UGCAUGU |
| B6 | 0.00742 KA relative to UGCAUGU |
| B7 | 0.00867 KA relative to UGCAUGU |
| B8 | 0.0041 KA relative to UGCAUGU |
| B9 | 0.00642 KA relative to UGCAUGU |
| B10 | 0.00158 KA relative to UGCAUGU |
| B11 | 0.00237 KA relative to UGCAUGU |
| B12 | 0.0134 KA relative to UGCAUGU |
| B13 | 0.0131 KA relative to UGCAUGU |
| B14 | 0.00807 KA relative to UGCAUGU |
| B15 | 0.00928 KA relative to UGCAUGU |
| B16 | 0.00662 KA relative to UGCAUGU |

| Binder | binding signal |
| --- | --- |
| B17 | 0.0043 KA relative to UGCAUGU |
| B18 | 0.00861 KA relative to UGCAUGU |
| B19 | 0.0149 KA relative to UGCAUGU |
| B20 | 0.0239 KA relative to UGCAUGU |
| B21 | 0.00355 KA relative to UGCAUGU |
| B22 | 0.0143 KA relative to UGCAUGU |
| B23 | 0.0163 KA relative to UGCAUGU |
| B24 | 0.00175 KA relative to UGCAUGU |
| B25 | 0.0255 KA relative to UGCAUGU |
| B26 | 0.00358 KA relative to UGCAUGU |
| B27 | 0.00322 KA relative to UGCAUGU |
| B28 | 0.0049 KA relative to UGCAUGU |
| B29 | 0.00642 KA relative to UGCAUGU |
| B30 | 0.00985 KA relative to UGCAUGU |
| B31 | 0.00333 KA relative to UGCAUGU |
